# According to the supplement of paper PMC8728848:
# The other results are listed elsewhere or left out.
# Tests used:
# Experiment in all cases: glycan array binding signal (z-score within array); higher = stronger binding
# Conditions in all cases: glycan notation: IUPAC condensed, linker removed
# Fuc(a1-2)Gal = biological target: Fuc(a1-2)Gal
# Summary of the method: (§1)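 The binding signal is a Z-score computed within each array and averaged over linkers. Arrays of the same protein sequence at different concentrations or buffers were also averaged together. Data originate from 3228 arrays in the Consortium for Functional Glycomics database, kept only where the protein sequence was available.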
# Fuc(a1-2)Gal(b1-3)GalNAc = biological target: Fuc(a1-2)Gal(b1-3)GalNAc
# Summary of the method: as §1
# [1] = biological target: Fuc(a1-2)Gal(b1-3)GalNAc(b1-3)Gal
# Summary of the method: as §1
# [2] = biological target: Fuc(a1-2)Gal(b1-3)GalNAc(b1-3)Gal(a1-4)Gal(b1-4)Glc
# Summary of the method: as §1
# [3] = biological target: Fuc(a1-2)Gal(b1-3)GalNAc(b1-4)[Neu5Ac(a2-3)]Gal(b1-4)Glc
# Summary of the method: as §1
# Fuc(a1-2)Gal(b1-3)GlcNAc = biological target: Fuc(a1-2)Gal(b1-3)GlcNAc
# Summary of the method: as §1
# [4] = biological target: Fuc(a1-2)Gal(b1-3)GlcNAc(b1-3)Gal(b1-4)Glc
# Summary of the method: as §1
# [5] = biological target: Fuc(a1-2)Gal(b1-3)[Fuc(a1-4)]GlcNAc
# Summary of the method: as §1
# Fuc(a1-2)Gal(b1-4)Glc = biological target: Fuc(a1-2)Gal(b1-4)Glc
# Summary of the method: as §1
# Fuc(a1-2)Gal(b1-4)GlcNAc = biological target: Fuc(a1-2)Gal(b1-4)GlcNAc
# Summary of the method: as §1
# [6] = biological target: Fuc(a1-2)Gal(b1-4)GlcNAc(b1-3)Gal(b1-4)GlcNAc
# Summary of the method: as §1
# [7] = biological target: Fuc(a1-2)Gal(b1-4)GlcNAc(b1-3)Gal(b1-4)GlcNAc(b1-3)Gal(b1-4)GlcNAc
# Summary of the method: as §1
# [8] = biological target: Fuc(a1-2)Gal(b1-4)[Fuc(a1-3)]GlcNAc
# Summary of the method: as §1
# [9] = biological target: Fuc(a1-2)Gal(b1-4)[Fuc(a1-3)]GlcNAc(b1-3)Gal(b1-4)[Fuc(a1-3)]GlcNAc
# Summary of the method: as §1
# [10] = biological target: Fuc(a1-2)Gal(b1-4)[Fuc(a1-3)]GlcNAc(b1-3)Gal(b1-4)[Fuc(a1-3)]GlcNAc(b1-3)Gal(b1-4)[Fuc(a1-3)]GlcNAc
# Summary of the method: as §1
# Fuc(a1-2)GlcNAc = biological target: Fuc(a1-2)GlcNAc
# Summary of the method: as §1
# Fuc(a1-2)[Gal(a1-3)]Gal = biological target: Fuc(a1-2)[Gal(a1-3)]Gal
# Summary of the method: as §1
# [11] = biological target: Fuc(a1-2)[Gal(a1-3)]Gal(b1-3)GlcNAc
# Summary of the method: as §1
# [12] = biological target: Fuc(a1-2)[Gal(a1-3)]Gal(b1-4)Glc
# Summary of the method: as §1
# [13] = biological target: Fuc(a1-2)[Gal(a1-3)]Gal(b1-4)GlcNAc
# Summary of the method: as §1
# [14] = biological target: Fuc(a1-2)[Gal(a1-3)]Gal(b1-4)[Fuc(a1-3)]GlcNAc
# Summary of the method: as §1
# [15] = biological target: Fuc(a1-2)[Gal(a1-4)]Gal(b1-4)GlcNAc
# Summary of the method: as §1
# [16] = biological target: Fuc(a1-2)[GalNAc(a1-3)]Gal
# Summary of the method: as §1
# [17] = biological target: Fuc(a1-2)[GalNAc(a1-3)]Gal(b1-3)GlcNAc
# Summary of the method: as §1
# [18] = biological target: Fuc(a1-2)[GalNAc(a1-3)]Gal(b1-4)Glc
# Summary of the method: as §1
# [19] = biological target: Fuc(a1-2)[GalNAc(a1-3)]Gal(b1-4)GlcNAc
# Summary of the method: as §1
# [20] = biological target: Fuc(a1-2)[GalNAc(a1-3)]Gal(b1-4)[Fuc(a1-3)]GlcNAc
# Summary of the method: as §1
# [21] = biological target: Fuc(a1-2)[GalNAc(a1-4)]Gal(b1-4)GlcNAc
# Summary of the method: as §1
# [22] = biological target: Fuc(a1-2)[GalNAc(b1-3)]Gal
# Summary of the method: as §1
# Fuc(a1-3)GlcNAc = biological target: Fuc(a1-3)GlcNAc
# Summary of the method: as §1
# [23] = biological target: Fuc(a1-3)[Gal(b1-4)]GlcNAc
# Summary of the method: as §1
# [24] = biological target: Fuc(a1-3)[Gal(b1-4)]GlcNAc(b1-4)Gal(b1-4)[Fuc(a1-3)]GlcNAc
# Summary of the method: as §1
# [25] = biological target: Fuc(a1-3)[Gal(b1-4)]GlcNAc(b1-4)Gal(b1-4)[Fuc(a1-3)]GlcNAc(b1-4)Gal(b1-4)[Fuc(a1-3)]GlcNAc
# Summary of the method: as §1
# [26] = biological target: Fuc(a1-3)[Gal3S(b1-4)]GlcNAc
# Summary of the method: as §1
# [27] = biological target: Fuc(a1-3)[GalNAc(b1-4)]GlcNAc
# Summary of the method: as §1
# Fuc(a1-4)GlcNAc = biological target: Fuc(a1-4)GlcNAc
# Summary of the method: as §1
# Fuc(b1-3)GlcNAc = biological target: Fuc(b1-3)GlcNAc
# Summary of the method: as §1
# Gal(a1-2)Gal = biological target: Gal(a1-2)Gal
# Summary of the method: as §1
# Gal(a1-3)Gal = biological target: Gal(a1-3)Gal
# Summary of the method: as §1
# Gal(a1-3)Gal(b1-3)GlcNAc = biological target: Gal(a1-3)Gal(b1-3)GlcNAc
# Summary of the method: as §1
# Gal(a1-3)Gal(b1-4)Glc = biological target: Gal(a1-3)Gal(b1-4)Glc
# Summary of the method: as §1
# Gal(a1-3)Gal(b1-4)GlcNAc = biological target: Gal(a1-3)Gal(b1-4)GlcNAc
# Summary of the method: as §1
# [28] = biological target: Gal(a1-3)Gal(b1-4)[Fuc(a1-3)]GlcNAc
# Summary of the method: as §1
# Gal(a1-3)GalNAc = biological target: Gal(a1-3)GalNAc
# Summary of the method: as §1
# [29] = biological target: Gal(a1-3)[Gal(a1-4)]Gal(b1-4)GlcNAc
# Summary of the method: as §1
# Gal(a1-4)Gal(b1-4)Glc = biological target: Gal(a1-4)Gal(b1-4)Glc
# Summary of the method: as §1
# Gal(a1-4)Gal(b1-4)GlcNAc = biological target: Gal(a1-4)Gal(b1-4)GlcNAc
# Summary of the method: as §1
# Gal(a1-4)GlcNAc = biological target: Gal(a1-4)GlcNAc
# Summary of the method: as §1
# Gal(a1-6)Glc = biological target: Gal(a1-6)Glc
# Summary of the method: as §1
# Gal(b1-2)Gal = biological target: Gal(b1-2)Gal
# Summary of the method: as §1
# Gal(b1-3)Gal = biological target: Gal(b1-3)Gal
# Summary of the method: as §1
# Gal(b1-3)GalNAc = biological target: Gal(b1-3)GalNAc
# Summary of the method: as §1
# [30] = biological target: Gal(b1-3)GalNAc(b1-3)Gal(a1-4)Gal(b1-4)Glc
# Summary of the method: as §1
# [31] = biological target: Gal(b1-3)GalNAc(b1-4)Gal(b1-4)Glc
# Summary of the method: as §1
# [32] = biological target: Gal(b1-3)GalNAc(b1-4)[Neu5Ac(a2-3)]Gal(b1-4)Glc
# Summary of the method: as §1
# Gal(b1-3)GlcNAc = biological target: Gal(b1-3)GlcNAc
# Summary of the method: as §1
# [33] = biological target: Gal(b1-3)GlcNAc(b1-3)Gal(b1-4)Glc
# Summary of the method: as §1
# [34] = biological target: Gal(b1-3)GlcNAc(b1-3)Gal(b1-4)GlcNAc
# Summary of the method: as §1
# [35] = biological target: Gal(b1-3)[Fuc(a1-4)]GlcNAc
# Summary of the method: as §1
# [36] = biological target: Gal(b1-3)[Fuc(a1-4)]GlcNAc(b1-3)Gal(b1-4)GlcNAc
# Summary of the method: as §1
binder,measurement,setting,value
MIG/CXCL9 (Homo sapiens) (protein) TPVVRKGRCSCISTNQGTIHLQSLKDLKQFAPSPSCEKIEIIIATLKNGVQTCLNPDSADVKELIKKTEKQVSQKKKQKNGKKHQKKKVLKVRKSQRSRQKKTT,glycan array binding signal (z-score),Fuc(a1-2)Gal,-0.025
same,glycan array binding signal (z-score),Fuc(a1-2)Gal(b1-3)GalNAc,-0.29
same,glycan array binding signal (z-score),[1],-0.053
same,glycan array binding signal (z-score),[2],-0.251
same,glycan array binding signal (z-score),[3],-0.193
same,glycan array binding signal (z-score),Fuc(a1-2)Gal(b1-3)GlcNAc,-0.293
same,glycan array binding signal (z-score),[4],-0.456
same,glycan array binding signal (z-score),[5],-0.459
same,glycan array binding signal (z-score),Fuc(a1-2)Gal(b1-4)Glc,-0.36
same,glycan array binding signal (z-score),Fuc(a1-2)Gal(b1-4)GlcNAc,-0.298
same,glycan array binding signal (z-score),[6],-0.298
same,glycan array binding signal (z-score),[7],-0.442
same,glycan array binding signal (z-score),[8],-0.26
same,glycan array binding signal (z-score),[9],-0.383
same,glycan array binding signal (z-score),[10],-0.37
same,glycan array binding signal (z-score),Fuc(a1-2)GlcNAc,-0.36
same,glycan array binding signal (z-score),Fuc(a1-2)[Gal(a1-3)]Gal,-0.368
same,glycan array binding signal (z-score),[11],-0.427
same,glycan array binding signal (z-score),[12],-0.327
same,glycan array binding signal (z-score),[13],-0.314
same,glycan array binding signal (z-score),[14],-0.279
same,glycan array binding signal (z-score),[15],-0.079
same,glycan array binding signal (z-score),[16],-0.409
same,glycan array binding signal (z-score),[17],-0.28
same,glycan array binding signal (z-score),[18],-0.079
same,glycan array binding signal (z-score),[19],-0.244
same,glycan array binding signal (z-score),[20],-0.206
same,glycan array binding signal (z-score),[21],-0.483
same,glycan array binding signal (z-score),[22],-0.4
same,glycan array binding signal (z-score),Fuc(a1-3)GlcNAc,-0.28
same,glycan array binding signal (z-score),[23],-0.333
same,glycan array binding signal (z-score),[24],-0.281
same,glycan array binding signal (z-score),[25],-0.33
same,glycan array binding signal (z-score),[26],-0.445
same,glycan array binding signal (z-score),[27],-0.307
same,glycan array binding signal (z-score),Fuc(a1-4)GlcNAc,-0.251
same,glycan array binding signal (z-score),Fuc(b1-3)GlcNAc,-0.209
same,glycan array binding signal (z-score),Gal(a1-2)Gal,-0.269
same,glycan array binding signal (z-score),Gal(a1-3)Gal,-0.114
same,glycan array binding signal (z-score),Gal(a1-3)Gal(b1-3)GlcNAc,-0.409
same,glycan array binding signal (z-score),Gal(a1-3)Gal(b1-4)Glc,-0.378
same,glycan array binding signal (z-score),Gal(a1-3)Gal(b1-4)GlcNAc,-0.15
same,glycan array binding signal (z-score),[28],-0.261
same,glycan array binding signal (z-score),Gal(a1-3)GalNAc,-0.247
same,glycan array binding signal (z-score),[29],0.463
same,glycan array binding signal (z-score),Gal(a1-4)Gal(b1-4)Glc,0.15
same,glycan array binding signal (z-score),Gal(a1-4)Gal(b1-4)GlcNAc,-0.143
same,glycan array binding signal (z-score),Gal(a1-4)GlcNAc,-0.24
same,glycan array binding signal (z-score),Gal(a1-6)Glc,0.289
same,glycan array binding signal (z-score),Gal(b1-2)Gal,-0.257
same,glycan array binding signal (z-score),Gal(b1-3)Gal,-0.318
same,glycan array binding signal (z-score),Gal(b1-3)GalNAc,0.088
same,glycan array binding signal (z-score),[30],-0.322
same,glycan array binding signal (z-score),[31],-0.345
same,glycan array binding signal (z-score),[32],-0.331
same,glycan array binding signal (z-score),Gal(b1-3)GlcNAc,-0.174
same,glycan array binding signal (z-score),[33],-0.383
same,glycan array binding signal (z-score),[34],-0.35
same,glycan array binding signal (z-score),[35],-0.301
same,glycan array binding signal (z-score),[36],-0.441
